To fix the notation:
B1: CPEB3 Ribozyme (parent)
chain: UAACAGGGGGCCACAGCAGAAGCGUUCACGUCGCAGCCCCUGUCAGAUUCUGGUGAAUCUGCGAAUUCUGCUGUAUAUCUC

The source gives no read counts; variants with many changes may rest on few reads.

The variants in this series derive from B1. In words: self-cleavage, relative activity (ratio to wild type); higher = more cleavage; in vitro, sequencing. In outline: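 Libraries of CPEB3 self-cleaving ribozyme mutants came from rounds of error-prone PCR and carried barcodes, which DNA sequencing matched to variants. In vitro transcription used T7 RNA polymerase at 37°C for 5 hours, with a further 15 min in DNase I before EDTA stopped the reaction; the ribozymes cleaved during both steps. The RNA was reverse transcribed with template switching and sequenced on Illumina. Relative activity is the cleaved/total read fraction of a variant divided by that of the unmutated ribozyme, averaged over three batches with at least 5 reads.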
With A3U G63A A65G U76C, the self-cleavage was 0.68.
As for A3U U43A U74C, the self-cleavage came to 1.25.
In the case of C4G A13G A18G U58C U80C it was 0.08; in that of C4A U31A U66C, 0.36; in that of C4A A35G C38U G53A U74A, 1.31.
In the case of A3U U25C A35G U51C it was 0.26; in that of C4G A21G U31G U41A U51A U60A U67C, 0.07.
In the case of A3U C29U U67C U78C it was 0.11; in that of A3U U43C G53A, 0.98; in that of A3U A45U U60C, 0.29.
A3U U25C U78C U80C: the self-cleavage was 0.07.
The same measure for A3U G19U U51A U69C: 0.13; for C4A U41C U48C U60A U72A: 0.16.
Regarding A3U U26C A28G U58C U72A, the self-cleavage came out at 0.08.
In the case of A3U U25C A35G U69A it was 0.07; in that of A3U C32A U43C U76C, 0.07; in that of C4A A57C U78C, 0.8.
In the case of A3U U25C U26C A35U U48C it was 0.09; in that of C4A A20U U51C A56G, 0.32; in that of A3U U60A U80C, 0.54.
Take A3U C32U U66C U74C: the self-cleavage came to 0.18.
In the case of C4G A21U A35G C40A U54C A65U G70A it was 0.07.
In the case of A3U C38A U49C it was 0.22; in that of C4A C27U U72G U80C, 0.42; in that of A3U U58C A64G, 0.56.
In the case of C4U A13G A20U A21G it was 0.36; in that of A3U G9U A77G, 0.12; in that of C4A A15U C29U C40G U41C U72C A75U, 0.16.
With C4G A21G A28G A56U U72G C81A, the self-cleavage stood at 0.3.
In the case of A3U C11G A47U A57U it was 0.18; in that of A3U C34A A35U U60C, 0.14.
In the case of C4G A21G U25C U26C it was 0.06; in that of A3U U25C U41C U48C U60C A75U U76C, 0.07.
In the case of A3U U25C U58C it was 0.51; in that of A3U A56G A65U, 0.24; in that of A3U G9A A18G U26C A45G U51C U60C, 0.06.
For the variant A3U G33U U72A, the self-cleavage worked out at 0.23.
In the case of C4G C23G A28G it was 0.25; in that of C4G A5G G10A U80G, 0.28.
In the case of A3U G7C A18G U54C it was 0.13.
In the case of C4G C12U C44A A45U U54A U74A it was 0.84; in that of A3U G9U U41A U51C U60A A77G, 0.14.
Consider C4G A5U U26C U60C U80C, for which the self-cleavage turned out to be 0.47.
The same measure for C4G A20U A65G: 0.26; for A3U G10U C17U G24C U31C U74C: 0.06.
In the case of C4G A13G U25C A45G it was 0.1.
In the case of A3U C12G U43A U51A A56G C81A it was 0.52; in that of A3U U51C G53A, 1.17; in that of A3U G16C U31C G33A U54C U69C, 0.08.
For the variant A3U C17U C38A, the self-cleavage turned out to be 0.59.
The same measure for A3U A65U U80C: 0.52.
The same measure for A3U U48C A64G U72A: 0.27.
On to C4G A18G A56G, for which the self-cleavage is 0.73.
The same measure for C4A C27G U43A U58C: 0.3; for A3U U31A A35U U69A: 0.23.
In the case of C4G A21G A28G it was 0.41; in that of A3U U60C C62U U72A A77G, 0.29; in that of A3U U48A A65G U69G U72A, 0.08.
In the case of A3U C37A U80A it was 0.16; in that of C4A A21G A47G A64U, 0.39; in that of A3U U31C A45G A56G U74C, 0.63.
As for A3U U58A A65U U74C, the self-cleavage worked out at 0.15.
Take A3U U25C U26C U41A U69C: the self-cleavage was found to be 0.12.
The same measure for A3U C34G C38A C39U: 0.44; for C4U A5G G6A: 0.56.
In the case of A3U C32U U60C U69C it was 0.12; in that of A3U G30A U49A A57G U60C A65G U69A, 0.05; in that of A3U A57G U60C, 0.41.
In the case of C4U A13U A15G A28U U51A U69A U78A it was 0.56; in that of C4U A5G A20G C37A A56G, 0.08; in that of A3U U26A G33C U41C U58C, 0.09.
On to A3U C23U A35G U48C U54C A77G, for which the self-cleavage turned out to be 0.61.
For A3U G19U A28G U67A U78C, the self-cleavage stood at 0.06.
The same measure for A3U U41C A64U: 0.27; for A3U U48C G53U U54A G61C: 0.43.
In the case of A3U G6A U48A it was 0.46.
In the case of C4G U69A U80C it was 0.89.
Take A3U U26C A64G U69C: the self-cleavage was 0.17.
Turning to A3U U25C U49C U69A, the self-cleavage turned out to be 0.22.
The same measure for C4A A15G A47U U60C U76A: 0.09; for A3U U41C U69A: 0.57; for A3U G7C G19U U72A: 0.3.
In the case of C4U A5G U41C U51C C68A, the self-cleavage turned out to be 0.45.

Source of the values: the RNAGym collection of RNA variant scans (doi:10.1093/nar/gkz1192).
